# Data taken from PMC4336329 (PLoS ONE, 2015).
# About 2,200 (0.71%) of roughly 310,000 compounds showed an effect of 50% or more. The effect is printed as a negative number. The list shows a part of the results.
# Biological target: human ether-à-go-go-related gene (hERG) potassium channel (human, UniProt Q12809)
# Assay: primary screen, population patch clamp on CHO cells stably expressing hERG
# Sequence of human ether-à-go-go-related gene (hERG) potassium channel (Q12809 whole entry, looked up): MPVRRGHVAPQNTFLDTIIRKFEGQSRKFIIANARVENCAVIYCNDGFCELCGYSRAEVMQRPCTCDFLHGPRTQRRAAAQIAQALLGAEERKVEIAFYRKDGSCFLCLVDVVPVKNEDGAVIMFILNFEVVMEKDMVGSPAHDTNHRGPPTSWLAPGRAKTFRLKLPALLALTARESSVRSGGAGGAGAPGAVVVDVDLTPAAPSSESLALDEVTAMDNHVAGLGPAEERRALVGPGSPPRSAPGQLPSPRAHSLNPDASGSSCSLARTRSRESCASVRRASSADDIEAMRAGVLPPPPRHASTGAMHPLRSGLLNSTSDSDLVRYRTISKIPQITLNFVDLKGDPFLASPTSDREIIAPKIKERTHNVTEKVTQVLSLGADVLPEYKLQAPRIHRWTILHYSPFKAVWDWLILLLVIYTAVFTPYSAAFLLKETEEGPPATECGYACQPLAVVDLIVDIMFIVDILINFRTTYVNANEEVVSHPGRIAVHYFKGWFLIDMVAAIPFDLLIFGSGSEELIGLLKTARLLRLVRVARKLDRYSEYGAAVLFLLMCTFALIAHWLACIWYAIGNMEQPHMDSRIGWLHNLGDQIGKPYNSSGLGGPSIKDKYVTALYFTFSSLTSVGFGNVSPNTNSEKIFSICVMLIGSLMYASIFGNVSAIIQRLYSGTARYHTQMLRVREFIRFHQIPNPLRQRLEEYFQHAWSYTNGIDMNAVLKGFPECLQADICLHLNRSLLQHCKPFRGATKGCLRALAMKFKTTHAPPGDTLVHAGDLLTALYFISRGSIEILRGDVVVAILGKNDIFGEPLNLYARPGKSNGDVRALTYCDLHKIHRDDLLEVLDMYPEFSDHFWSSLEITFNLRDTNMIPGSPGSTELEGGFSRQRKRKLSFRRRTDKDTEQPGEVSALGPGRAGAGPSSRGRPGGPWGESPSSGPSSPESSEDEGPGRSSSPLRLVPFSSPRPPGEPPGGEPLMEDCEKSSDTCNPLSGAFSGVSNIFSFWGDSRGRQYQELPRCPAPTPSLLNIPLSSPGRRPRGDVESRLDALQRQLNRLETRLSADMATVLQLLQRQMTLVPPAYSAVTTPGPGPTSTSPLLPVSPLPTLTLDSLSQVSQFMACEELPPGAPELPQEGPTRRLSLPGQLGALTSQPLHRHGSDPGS
row,Compound,"hERG current change (%, negative = inhibition) at 1uM [%]"
1,O=C(NCC1CCCO1)c1ccc(-c2ccccc2Cl)o1 (stereo not drawn),15.8
2,COc1ccccc1N1CCN(C(=S)Nc2ccc(F)cc2)CC1,15.7
3,CCCCNCc1cc2ccccc2o1.Cl,6.27
4,CC1=Nc2ccccc2/C1=C/c1c(O)n(C)c(=O)[nH]c1=O,10.9
5,O=C(Cn1cnc2c(nnn2Cc2ccc(F)cc2)c1=O)NCc1ccc2c(c1)OCO2,1.4
6,CCCc1nn2c(=O)cc(CSCC(=O)Nc3ccc(F)cc3)nc2s1,12.2
7,CCOC(=O)c1c(CC(C)C)csc1N,-11.9
8,Cc1ccc(S(=O)(=O)[O-])cc1.c1cnc2c(c1)ccc1ccc[nH+]c12,20.7
9,Cl.O=C1CSC(c2cn(-c3ccccc3)nc2-c2ccc3c(c2)OCCO3)N1CCN1CCOCC1 (stereo not drawn),7.76
10,COc1ccc(/C=C/c2ccc(=O)n(Cc3ccccc3)n2)cc1,12.4
11,C/C(=N\NC(=O)c1ccccc1)c1cc2cc([N+](=O)[O-])ccc2oc1=O,5.09
12,Cc1ccccc1-c1ccc(/C=C2/SC(N3CCOCC3)=NC2=O)o1,-3.7
13,O=C(Nc1ccccc1Oc1ccccc1)C1=COCCO1,4.63
14,Cc1ccc(CNC(=O)CCC(=O)n2ncc3cc(C)ccc32)cc1,12
15,COC(=O)C1(C)NC(c2ccc(O)cc2)C2C(=O)N(c3ccc4c(c3)OCCO4)C(=O)C21 (stereo not drawn),8.41
16,CC(C)CCN(C(=O)c1cc(=O)[nH]c2ccccc12)c1c(N)n(Cc2ccccc2)c(=O)[nH]c1=O,1.37
17,Cc1nn(-c2ccccc2)c(Cl)c1C(=O)Nc1nnc(C2CCCCC2)s1,11.9
18,CCOC(=O)c1ccc(NC(=O)c2cc(S(=O)(=O)N3CCOCC3)cn2C)cc1,11.6
19,CC(=O)Nc1ccc(NC(=S)Nc2ccccc2)cc1,-4.47
20,Cc1ccc(C(=O)NC(=S)NCc2ccco2)cc1,9.64
21,S=C(NCc1ccccn1)Nc1cccc(Cl)c1,10.7
22,CCCN1C2CCCC1CC(NC(=O)c1cccc(OC)c1)C2 (stereo not drawn),8.52
23,O=C(NCc1ccccc1)C1CCCN(C(=O)Nc2ccccc2)C1 (stereo not drawn),19.6

row,Compound,"hERG current change (%, negative = inhibition) at 1uM [%]"
1,CCOC(=O)c1cnn2c(C(F)(F)F)cc(-c3cn(C)nc3C)nc12,12.5
2,COc1ccc(/C=C/C(=O)Oc2ccc(/C=N/NC(=O)c3ccccc3)cc2)cc1OC,6.42
3,CCN(CC)S(=O)(=O)c1ccc(-c2nnc(SCC(=O)c3ccc(OC)cc3)o2)cc1,5.81
4,Cc1nccn1-c1cc(C(C)(C)C)nc2c(-c3ccccc3)cnn12,2.82
5,CC(=O)Nc1cccc(NC=C(C#N)C#N)c1,15.8
6,O=C(CCNS(=O)(=O)c1c(Cl)cccc1Cl)N1CCCC1,11.3
7,COc1ccc(N=Nc2ccc3ccccc3c2)c(O)c1,10.1
8,O=C(N/N=C/c1ccccc1F)c1csc2c1CCCC2,10.2
9,COc1ccc(S(=O)(=O)N2CCCCCC2)cc1C(=O)N(C)Cc1c(F)cccc1Cl,2.91
10,COc1cccc(N2C(=O)CC(N3CCN(c4ccc([N+](=O)[O-])cc4)CC3)C2=O)c1 (stereo not drawn),-7.4
11,CC1CCCC(C)N1c1nnc(NC(=O)Cn2c(=O)oc3ccccc32)s1 (stereo not drawn),14.3
12,O=C(N/N=C\c1cccc([N+](=O)[O-])c1O)C1COc2ccccc2O1 (stereo not drawn),9.48
13,Cc1nn(Cc2ccccc2)c(Cl)c1C(=O)OCc1nnc(-c2ccccc2)o1,8.89
14,CCOC(=O)c1c(C)[nH]c(C(=O)COC(=O)c2cnc(C)cn2)c1C,0.153
15,O=C(O)CC(NC(=O)COc1ccccc1)c1cccc([N+](=O)[O-])c1 (stereo not drawn),6.58
16,CC(=O)c1ccc(-c2nnc(CCC(=O)N3CCCC(C(=O)CC(C)C)C3)o2)s1 (stereo not drawn),4.6
17,O=S(=O)(NCc1ccco1)c1cccc2cccnc12,6.6
18,O=C(OCCN1C(=O)c2ccccc2C1=O)c1ccc(S(=O)(=O)N2CCCCCC2)cc1,-0.0351
19,CC1(C)CC(=O)C=C(Nc2ccccc2C#N)C1.Cl,17.7
20,O=C(N=C1N=C2C=CC(Br)=CN2Cc2ccccc21)c1ccc([N+](=O)[O-])cc1[N+](=O)[O-],6.29
21,Cc1ccc(N2C(=O)NC(=O)/C(=C\c3ccoc3)C2=O)cc1,17
22,O=C(N/N=C/c1ccoc1)c1cc(O)cc(O)c1,13.8
